The subject of experiment [1] is methicillin-resistant S. aureus (MRSA) (ATCC BAA-1556). Kind of experiment: Bactericidal assay (colony count), MRSA. The following applies: 2 hours at 37° C.; concentration as low as 0.0001%; thujopsene (0.001%), totarol (0.0001%) or combination. As for the experimental part:
(§1) Experiments were conducted using bacteria including methicillin-sensitive S. aureus (MSSA) (ATCC BAA-29213, Manassas, VA), methicillin-resistant S. aureus (MRSA) (ATCC BAA-1556), and Streptococcuspyogenes (ATCC BAA-19615). Bacterial cultures were grown overnight in Tryptic Soy Broth (Becton Dickinson, Franklin Lakes, NJ) at 37° C. and reseeded in fresh medium three hours prior to experiment. Bacterial concentration was determined by optical density. Bacteria were incubated with vehicle, thujopsene (0.001%), totarol (0.0001%), or a combination of thujopsene (0.001%) and totarol (0.0001%) for 2 hours at 37° C. while shaking, then plated on Tryptic Soy Agar plates and incubated overnight at 37° C. Multiple dilutions were made for each sample to ensure that there were a measurable number of colonies on a given plate. Colonies were counted the following day.
(§2) Inhibitory effects of the mixture on bacteria were analyzed using the bactericidal assay.

In experiment [2] the test system is methicillin-sensitive S. aureus (MSSA) (ATCC BAA-29213). The experiment is described as follows: Bactericidal assay (colony count), MSSA. To be noted: 2 hours at 37° C.; concentration as low as 0.0001%; thujopsene (0.001%), totarol (0.0001%) or combination. As for the experimental part:
as §1, §2

Molecules are shown by their SMILES.

`CC1=CC[C@]2(C)CCCC(C)(C)[C@@]23C[C@@H]13` [thujopsene]: in experiment [1], the “Inhibition of MRSA” value is recorded as “significantly (P<0.0001) inhibited”. In experiment [2], the “Inhibition of MSSA” value was “significantly (P<0.0001) inhibited”.

In the case of `CC(C)c1c(O)ccc2c1CC[C@H]1C(C)(C)CCC[C@]21C` [totarol], the “Inhibition of MRSA” value in experiment [1] is recorded as “significantly (P<0.0001) inhibited”. Moreover, the “Inhibition of MSSA” value in experiment [2] is listed as “significantly (P<0.0001) inhibited”.

(Values after patent US20240122872A1, “COMPOSITIONS AND METHODS FOR TREATMENT OF MICROBIAL INFECTIONS” (EpiTop, Inc., priority 2022, published 2024).)
